Test results published in paper PMC12820563, “FoxP3 forms a head-to-head dimer in vivo and stabilizes its multimerization on adjacent microsatellites”.
This is one part of the list.

molecular target: T1, MBP-FoxP1dN (Mus musculus, UniProt P58462 326-579); test: PD-seq (MBP pull-down with sequencing); 20 mM Tris-HCl pH 7.5, 100 mM NaCl, 1.5 mM MgCl2, 0.4 uM protein, 0.1 uM dsDNA library, 30 min, room temperature, amylose pull-down; high values mean tight binding; details: protein: recombinant; tags: His6-MBP; chain copies: 2; dsDNA, one strand shown
T1 sequence: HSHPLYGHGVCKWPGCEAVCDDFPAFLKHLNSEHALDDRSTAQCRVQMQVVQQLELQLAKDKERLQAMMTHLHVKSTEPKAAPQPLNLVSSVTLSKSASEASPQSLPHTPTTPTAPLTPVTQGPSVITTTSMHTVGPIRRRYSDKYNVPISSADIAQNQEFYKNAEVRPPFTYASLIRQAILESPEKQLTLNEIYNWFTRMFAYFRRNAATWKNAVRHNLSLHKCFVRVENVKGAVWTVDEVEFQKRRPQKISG
How it was run: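 A degenerate double-stranded DNA library, filled in with Klenow, was added at 0.1 µM to 0.4 µM His6-MBP-tagged mouse FoxP3 or FoxP1 fragment lacking the N-terminus, expressed in E. coli. Incubation lasted 30 min at room temperature in Tris pH 7.5 buffer with NaCl and MgCl2, after which complexes were collected on amylose resin, washed three times, digested with proteinase K to free the DNA, barcoded by PCR and sequenced by Illumina. Binding is the pooled-replicate reads-per-million enrichment of pull-down over input.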

Sequence | binding signal
GATGATTGTTCTCCCAGCTGATGAATTCGTGCTCTCGAGTAAACAAATTTTCCTAATCTTTCTGTTCAAGCGCCATCTAC | 0.844 RPM ratio (pull-down/input)
GATGATTGTTCTCCCAGCTGATGAATTGACTGTTTCGAGTAAACAAATTTTCCTAATCTTTCTGTTCAAGCGCCATCTAC | 1.15 RPM ratio (pull-down/input)
GATGATTGTTCTCCCAGCTGATGAATTTGGGCCATCGAGTAAACAAATTTTCCTAATCTTTCTGTTCAAGCGCCATCTAC | 0.878 RPM ratio (pull-down/input)
GATGATTGTTCTCCCAGCTGATGAATTTTGACACTCGAGTAAACAAATTTTCCTAATCTTTCTGTTCAAGCGCCATCTAC | 0.961 RPM ratio (pull-down/input)
GATGATTGTTCTCCCAGCTGATGAATTTGCACGGTCGAGTAAACAAATTTTCCTAATCTTTCTGTTCAAGCGCCATCTAC | 0.878 RPM ratio (pull-down/input)
GATGATTGTTCTCCCAGCTGATGAATTTGTGCCATCGAGTAAACAAATTTTCCTAATCTTTCTGTTCAAGCGCCATCTAC | 1.22 RPM ratio (pull-down/input)
GATGATTGTTCTCCCAGCTGATGAATTACAGCCTTCGAGTAAACAAATTTTCCTAATCTTTCTGTTCAAGCGCCATCTAC | 0.963 RPM ratio (pull-down/input)
GATGATTGTTCTCCCAGCTGATGAATTCGTAATGTCGAGTAAACAAATTTTCCTAATCTTTCTGTTCAAGCGCCATCTAC | 1.03 RPM ratio (pull-down/input)
GATGATTGTTCTCCCAGCTGATGAATTGCCCTCTTCGAGTAAACAAATTTTCCTAATCTTTCTGTTCAAGCGCCATCTAC | 0.958 RPM ratio (pull-down/input)
GATGATTGTTCTCCCAGCTGATGAATTCAACTGATCGAGTAAACAAATTTTCCTAATCTTTCTGTTCAAGCGCCATCTAC | 0.916 RPM ratio (pull-down/input)
GATGATTGTTCTCCCAGCTGATGAATTGGGCAGTTCGAGTAAACAAATTTTCCTAATCTTTCTGTTCAAGCGCCATCTAC | 0.883 RPM ratio (pull-down/input)
GATGATTGTTCTCCCAGCTGATGAATTGAGGATATCGAGTAAACAAATTTTCCTAATCTTTCTGTTCAAGCGCCATCTAC | 0.85 RPM ratio (pull-down/input)
GATGATTGTTCTCCCAGCTGATGAATTTACCCAGTCGAGTAAACAAATTTTCCTAATCTTTCTGTTCAAGCGCCATCTAC | 1.01 RPM ratio (pull-down/input)
GATGATTGTTCTCCCAGCTGATGAATTTTACAGATCGAGTAAACAAATTTTCCTAATCTTTCTGTTCAAGCGCCATCTAC | 0.907 RPM ratio (pull-down/input)
GATGATTGTTCTCCCAGCTGATGAATTTCAGTTATCGAGTAAACAAATTTTCCTAATCTTTCTGTTCAAGCGCCATCTAC | 1.02 RPM ratio (pull-down/input)
GATGATTGTTCTCCCAGCTGATGAATTTGGTAAATCGAGTAAACAAATTTTCCTAATCTTTCTGTTCAAGCGCCATCTAC | 1.3 RPM ratio (pull-down/input)

Sequence | binding signal
GATGATTGTTCTCCCAGCTGATGAATTAGCGGTTTCGAGTAAACAAATTTTCCTAATCTTTCTGTTCAAGCGCCATCTAC | 0.916 RPM ratio (pull-down/input)
GATGATTGTTCTCCCAGCTGATGAATTGGACTCCTCGAGTAAACAAATTTTCCTAATCTTTCTGTTCAAGCGCCATCTAC | 0.729 RPM ratio (pull-down/input)
GATGATTGTTCTCCCAGCTGATGAATTGGGTACTTCGAGTAAACAAATTTTCCTAATCTTTCTGTTCAAGCGCCATCTAC | 0.888 RPM ratio (pull-down/input)
GATGATTGTTCTCCCAGCTGATGAATTATATTTGTCGAGTAAACAAATTTTCCTAATCTTTCTGTTCAAGCGCCATCTAC | 2.29 RPM ratio (pull-down/input)
GATGATTGTTCTCCCAGCTGATGAATTGGTGTCGTCGAGTAAACAAATTTTCCTAATCTTTCTGTTCAAGCGCCATCTAC | 1.04 RPM ratio (pull-down/input)
GATGATTGTTCTCCCAGCTGATGAATTTCTCATATCGAGTAAACAAATTTTCCTAATCTTTCTGTTCAAGCGCCATCTAC | 1.01 RPM ratio (pull-down/input)
GATGATTGTTCTCCCAGCTGATGAATTGTTCAATTCGAGTAAACAAATTTTCCTAATCTTTCTGTTCAAGCGCCATCTAC | 1.18 RPM ratio (pull-down/input)
GATGATTGTTCTCCCAGCTGATGAATTTGAAAGATCGAGTAAACAAATTTTCCTAATCTTTCTGTTCAAGCGCCATCTAC | 0.87 RPM ratio (pull-down/input)
GATGATTGTTCTCCCAGCTGATGAATTGACTATATCGAGTAAACAAATTTTCCTAATCTTTCTGTTCAAGCGCCATCTAC | 1.17 RPM ratio (pull-down/input)
GATGATTGTTCTCCCAGCTGATGAATTGCCGGACTCGAGTAAACAAATTTTCCTAATCTTTCTGTTCAAGCGCCATCTAC | 0.858 RPM ratio (pull-down/input)
GATGATTGTTCTCCCAGCTGATGAATTACGCAAGTCGAGTAAACAAATTTTCCTAATCTTTCTGTTCAAGCGCCATCTAC | 1.03 RPM ratio (pull-down/input)
GATGATTGTTCTCCCAGCTGATGAATTGGTTGCGTCGAGTAAACAAATTTTCCTAATCTTTCTGTTCAAGCGCCATCTAC | 1.2 RPM ratio (pull-down/input)
GATGATTGTTCTCCCAGCTGATGAATTATACGCCTCGAGTAAACAAATTTTCCTAATCTTTCTGTTCAAGCGCCATCTAC | 0.912 RPM ratio (pull-down/input)
GATGATTGTTCTCCCAGCTGATGAATTATCCGGGTCGAGTAAACAAATTTTCCTAATCTTTCTGTTCAAGCGCCATCTAC | 0.783 RPM ratio (pull-down/input)
GATGATTGTTCTCCCAGCTGATGAATTAGGGAAGTCGAGTAAACAAATTTTCCTAATCTTTCTGTTCAAGCGCCATCTAC | 0.821 RPM ratio (pull-down/input)
